The source of these data is the BET-seq Pho4 binding data (Le et al. 2018).

The list shows a part of the results. These are noisy estimates, calculated here from bound and input reads.

The test addresses T1, Pho4 (S. cerevisiae) (UniProt P07270).
T1 sequence: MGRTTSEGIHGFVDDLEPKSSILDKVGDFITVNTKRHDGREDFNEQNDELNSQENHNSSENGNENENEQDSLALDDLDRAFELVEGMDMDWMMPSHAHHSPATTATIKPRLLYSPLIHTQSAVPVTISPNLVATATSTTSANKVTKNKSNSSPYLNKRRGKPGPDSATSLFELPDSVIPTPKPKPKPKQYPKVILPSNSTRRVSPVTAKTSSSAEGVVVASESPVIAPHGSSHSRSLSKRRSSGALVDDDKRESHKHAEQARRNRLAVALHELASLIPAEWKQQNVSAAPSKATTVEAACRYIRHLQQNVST
Put plainly: relative binding free energy (BET-seq); higher = weaker binding. The settings on record: reference: library average.
For AATTTCACGTGAAGGC, the “relative binding free energy” value was 0.34 kcal/mol.

Regarding TGTTACACGTGGTATA, the “relative binding free energy” value is -0.06 kcal/mol.

For AGTGGCACGTGATGCG, the “relative binding free energy” value was -0.04 kcal/mol.

Regarding GTCAGCACGTGGGTTG, the “relative binding free energy” value was -0.19 kcal/mol.

With CGGTGCACGTGTTATG, the “relative binding free energy” value was -0.01 kcal/mol.

Take TTTATCACGTGCTCGG: the “relative binding free energy” value was 0.16 kcal/mol.

ATCAGCACGTGGATGT: the “relative binding free energy” value was -0.06 kcal/mol.

Regarding CGATACACGTGATGTT, the “relative binding free energy” value stood at 0.26 kcal/mol.

In the case of GATGTCACGTGAGCGG, the “relative binding free energy” value came out at 0.31 kcal/mol.

On to GATGGCACGTGAGTGG, for which the “relative binding free energy” value worked out at 0.23 kcal/mol.

For the sequence TCTTACACGTGATTAT, the “relative binding free energy” value was found to be 0.32 kcal/mol.

As for TTAATCACGTGGGCGG, the “relative binding free energy” value is 0.06 kcal/mol.

As for TAAATCACGTGGATAT, the “relative binding free energy” value was 0.21 kcal/mol.

On to CTCGGCACGTGGTAGG, for which the “relative binding free energy” value is -0.34 kcal/mol.

On to TTGGTCACGTGGTTTG, for which the “relative binding free energy” value amounted to 0.13 kcal/mol.

In the case of GATGTCACGTGTTGTT, the “relative binding free energy” value came out at 0.15 kcal/mol.

Regarding TGATTCACGTGGAACT, the “relative binding free energy” value is 0.37 kcal/mol.

GAAGTCACGTGGTTGG: the “relative binding free energy” value turned out to be 0.16 kcal/mol.

TTATACACGTGTTCGG: the “relative binding free energy” value is -0.02 kcal/mol.

With GGTTACACGTGTTTCA, the “relative binding free energy” value was 0.1 kcal/mol.

Turning to AGTGGCACGTGCTTGT, the “relative binding free energy” value was -0.14 kcal/mol.

With GGCGTCACGTGGGTCA, the “relative binding free energy” value is 0.13 kcal/mol.

Take TTGGGCACGTGAGCTA: the “relative binding free energy” value is 0.1 kcal/mol.

For the sequence AATTCCACGTGTTTGT, the “relative binding free energy” value is -0.06 kcal/mol.

For the sequence TATTTCACGTGGCAAG, the “relative binding free energy” value was found to be 0.24 kcal/mol.

For GGGGGCACGTGCATAG, the “relative binding free energy” value is -0.14 kcal/mol.

Consider TTGATCACGTGCTAGT, for which the “relative binding free energy” value was found to be 0.03 kcal/mol.

With ATGTTCACGTGGATTT, the “relative binding free energy” value was 0.15 kcal/mol.

Turning to TAGTTCACGTGGTGGG, the “relative binding free energy” value came to 0.29 kcal/mol.

On to TAAATCACGTGGTAGG, for which the “relative binding free energy” value was 0.11 kcal/mol.

Consider GTGAGCACGTGACGGT, for which the “relative binding free energy” value is 0.06 kcal/mol.

As for CGTTTCACGTGAAGTT, the “relative binding free energy” value is 0.46 kcal/mol.

With TTCTTCACGTGGTCAT, the “relative binding free energy” value came to 0.31 kcal/mol.

With TGTGACACGTGTGGGT, the “relative binding free energy” value was 0.04 kcal/mol.

Consider GTAAGCACGTGGTTAG, for which the “relative binding free energy” value was -0.28 kcal/mol.

Take AGAATCACGTGGGCAT: the “relative binding free energy” value worked out at 0.15 kcal/mol.

For the sequence GTTTCCACGTGAGGAG, the “relative binding free energy” value was 0.35 kcal/mol.

Turning to TGGGTCACGTGAAGTA, the “relative binding free energy” value turned out to be 0.37 kcal/mol.

Turning to AATTTCACGTGTGCTG, the “relative binding free energy” value is 0.43 kcal/mol.

Take GGATACACGTGATAGT: the “relative binding free energy” value was found to be 0.18 kcal/mol.

Turning to TGGGGCACGTGAATGG, the “relative binding free energy” value is 0.22 kcal/mol.

In the case of AATCGCACGTGGCTGG, the “relative binding free energy” value is -0.09 kcal/mol.

As for GTGGGCACGTGTGTTG, the “relative binding free energy” value was -0.04 kcal/mol.

AAGTACACGTGAGGAT: the “relative binding free energy” value was found to be 0.34 kcal/mol.

Consider TTGGCCACGTGGCAGG, for which the “relative binding free energy” value was -0.12 kcal/mol.

For TTTATCACGTGAAAGT, the “relative binding free energy” value stood at 0.33 kcal/mol.

Turning to GTACGCACGTGAGGGG, the “relative binding free energy” value was 0.16 kcal/mol.

Take TGAGACACGTGTTGGT: the “relative binding free energy” value amounted to 0.03 kcal/mol.

Consider GTATTCACGTGCTGTC, for which the “relative binding free energy” value is 0.27 kcal/mol.

For ATAGGCACGTGTATGC, the “relative binding free energy” value was -0.09 kcal/mol.

For the sequence GATGTCACGTGATGTT, the “relative binding free energy” value turned out to be 0.3 kcal/mol.

As to AAGGTCACGTGGGGAG, the “relative binding free energy” value was 0.07 kcal/mol.

In the case of TGCGGCACGTGCGGGA, the “relative binding free energy” value is -0.14 kcal/mol.

With TATGTCACGTGGTTCA, the “relative binding free energy” value is 0.1 kcal/mol.

As to TTTAGCACGTGCGAAG, the “relative binding free energy” value came out at 0.01 kcal/mol.

For the sequence CGATTCACGTGTTCGT, the “relative binding free energy” value came out at 0.31 kcal/mol.

On to ACTGGCACGTGGAGTA, for which the “relative binding free energy” value was -0.14 kcal/mol.

Turning to CAGGGCACGTGGGGGA, the “relative binding free energy” value was -0.25 kcal/mol.

As to GTACGCACGTGTGGCG, the “relative binding free energy” value is 0.01 kcal/mol.

Consider ATTTGCACGTGAGAGT, for which the “relative binding free energy” value worked out at 0.26 kcal/mol.

On to TCGGGCACGTGCTTAT, for which the “relative binding free energy” value is -0.01 kcal/mol.

Consider AGGAGCACGTGGGCAG, for which the “relative binding free energy” value is -0.26 kcal/mol.

For TAATTCACGTGTTGAT, the “relative binding free energy” value stood at 0.09 kcal/mol.

Take TGCAACACGTGTGGTT: the “relative binding free energy” value amounted to 0.07 kcal/mol.

Consider TTTGTCACGTGTGCAC, for which the “relative binding free energy” value is -0.04 kcal/mol.

Take TGTTTCACGTGGCATG: the “relative binding free energy” value was found to be 0.16 kcal/mol.

TAAGGCACGTGAGTGG: the “relative binding free energy” value is 0.09 kcal/mol.

Turning to GGCTTCACGTGATAGG, the “relative binding free energy” value is 0.43 kcal/mol.

With GCTGTCACGTGAGGGG, the “relative binding free energy” value worked out at 0.38 kcal/mol.

On to TGGCGCACGTGGAGCT, for which the “relative binding free energy” value is -0.11 kcal/mol.

Take GAAGGCACGTGGTGTG: the “relative binding free energy” value is -0.22 kcal/mol.

GGCAACACGTGGTATA: the “relative binding free energy” value came out at 0.18 kcal/mol.

Consider GTGAGCACGTGCGTTG, for which the “relative binding free energy” value is -0.11 kcal/mol.

With GGGAGCACGTGTCTTT, the “relative binding free energy” value turned out to be 0.1 kcal/mol.

For the sequence GTAGTCACGTGAGGCT, the “relative binding free energy” value was 0.35 kcal/mol.

GATGGCACGTGGACGG: the “relative binding free energy” value is -0.09 kcal/mol.

As to AGTCTCACGTGGAGGA, the “relative binding free energy” value was 0.13 kcal/mol.

Regarding TAAGTCACGTGGTTAG, the “relative binding free energy” value was determined as 0.04 kcal/mol.

With TGGTGCACGTGTAGCA, the “relative binding free energy” value was -0.03 kcal/mol.

As for TGCCTCACGTGCTGGT, the “relative binding free energy” value came out at 0.16 kcal/mol.

As for CGGAACACGTGAATGT, the “relative binding free energy” value is 0.42 kcal/mol.

Regarding CTAAGCACGTGGCGGG, the “relative binding free energy” value is -0.17 kcal/mol.

Turning to AGGAGCACGTGTGTTC, the “relative binding free energy” value worked out at 0.03 kcal/mol.

For the sequence TAGATCACGTGAGTCA, the “relative binding free energy” value is 0.35 kcal/mol.

In the case of GGTAACACGTGAGGGT, the “relative binding free energy” value was found to be 0.32 kcal/mol.

For the sequence TGCAGCACGTGAGGGT, the “relative binding free energy” value is 0.11 kcal/mol.

Take TGGAGCACGTGGGAAA: the “relative binding free energy” value was 0.13 kcal/mol.

As for TGGGACACGTGACATT, the “relative binding free energy” value came out at 0.28 kcal/mol.

Turning to AGTCTCACGTGTTATA, the “relative binding free energy” value was 0.18 kcal/mol.

For the sequence CTAGGCACGTGAGCGG, the “relative binding free energy” value was determined as 0.08 kcal/mol.

Consider TGATTCACGTGCTTTA, for which the “relative binding free energy” value turned out to be 0.21 kcal/mol.

With TATGTCACGTGTGTTT, the “relative binding free energy” value came out at 0.15 kcal/mol.

In the case of TTGTGCACGTGGGTGG, the “relative binding free energy” value is -0.03 kcal/mol.

Regarding CGTAACACGTGGGGAT, the “relative binding free energy” value stood at 0 kcal/mol.

Take ATAGTCACGTGCTGTG: the “relative binding free energy” value amounted to 0.03 kcal/mol.

For the sequence TATGGCACGTGGTGTT, the “relative binding free energy” value was -0.29 kcal/mol.

For TTATTCACGTGTCGAA, the “relative binding free energy” value came to 0.19 kcal/mol.

As for TGGAGCACGTGATTTA, the “relative binding free energy” value was 0.08 kcal/mol.

In the case of TATGTCACGTGTGCGA, the “relative binding free energy” value is -0.13 kcal/mol.

On to AGGGCCACGTGAAGTG, for which the “relative binding free energy” value worked out at 0.11 kcal/mol.

Turning to ATGGCCACGTGTTGGG, the “relative binding free energy” value was -0.02 kcal/mol.

On to GGAGGCACGTGGGGTG, for which the “relative binding free energy” value was -0.24 kcal/mol.

Turning to GAAGTCACGTGGTGTA, the “relative binding free energy” value stood at 0.08 kcal/mol.

For the sequence TCTGTCACGTGAGGGC, the “relative binding free energy” value came out at 0.18 kcal/mol.

In the case of TGTTCCACGTGGGGTA, the “relative binding free energy” value was -0.11 kcal/mol.

Regarding AGGTGCACGTGTCATT, the “relative binding free energy” value was -0.01 kcal/mol.

Take CTATACACGTGTGGTT: the “relative binding free energy” value came out at 0.19 kcal/mol.

GGAGTCACGTGGCTAG: the “relative binding free energy” value turned out to be 0.14 kcal/mol.

For GAAAGCACGTGGTGAG, the “relative binding free energy” value was -0.14 kcal/mol.

Regarding TTGGACACGTGGATTC, the “relative binding free energy” value came out at 0.11 kcal/mol.

With ATAGGCACGTGATGTA, the “relative binding free energy” value was -0.04 kcal/mol.

Consider GATTTCACGTGAGTCT, for which the “relative binding free energy” value amounted to 0.51 kcal/mol.

GGATTCACGTGCGAGG: the “relative binding free energy” value turned out to be 0.28 kcal/mol.

In the case of GGTAGCACGTGGGTCC, the “relative binding free energy” value was -0.23 kcal/mol.

Take GTCAGCACGTGTGCGT: the “relative binding free energy” value was -0.02 kcal/mol.
